PubChem BioAssay AID488969 (Vanderbilt High Throughput Screening Facility, 2010)
In all, about 110,000 compounds were measured (“z-score”: median about -0.1, highest 2% from about 2 on). The list shows a part of the results. Active and inactive are the calls of the source.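 Rule for the calls: active = z-score in the third read window above 3 or below -3; inactive = the rest.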

molecular target: Metabotropic glutamate receptor 8 (Rattus norvegicus) (UniProt P70579); assay: mGluR8 Gi/Go-coupled signaling modulation – cell-based, rat, thallium flux, HTS, primary screen (AID 488969); conditions: HEK293 rat mGluR8, GIRK (G protein-gated inwardly rectifying potassium channel) thallium flux, FluoZin2; at 10 µM; stronger effect = higher value; submaximal glutamate (EC20) added with thallium
Chain of UniProt P70579 (P70579 whole entry, looked up): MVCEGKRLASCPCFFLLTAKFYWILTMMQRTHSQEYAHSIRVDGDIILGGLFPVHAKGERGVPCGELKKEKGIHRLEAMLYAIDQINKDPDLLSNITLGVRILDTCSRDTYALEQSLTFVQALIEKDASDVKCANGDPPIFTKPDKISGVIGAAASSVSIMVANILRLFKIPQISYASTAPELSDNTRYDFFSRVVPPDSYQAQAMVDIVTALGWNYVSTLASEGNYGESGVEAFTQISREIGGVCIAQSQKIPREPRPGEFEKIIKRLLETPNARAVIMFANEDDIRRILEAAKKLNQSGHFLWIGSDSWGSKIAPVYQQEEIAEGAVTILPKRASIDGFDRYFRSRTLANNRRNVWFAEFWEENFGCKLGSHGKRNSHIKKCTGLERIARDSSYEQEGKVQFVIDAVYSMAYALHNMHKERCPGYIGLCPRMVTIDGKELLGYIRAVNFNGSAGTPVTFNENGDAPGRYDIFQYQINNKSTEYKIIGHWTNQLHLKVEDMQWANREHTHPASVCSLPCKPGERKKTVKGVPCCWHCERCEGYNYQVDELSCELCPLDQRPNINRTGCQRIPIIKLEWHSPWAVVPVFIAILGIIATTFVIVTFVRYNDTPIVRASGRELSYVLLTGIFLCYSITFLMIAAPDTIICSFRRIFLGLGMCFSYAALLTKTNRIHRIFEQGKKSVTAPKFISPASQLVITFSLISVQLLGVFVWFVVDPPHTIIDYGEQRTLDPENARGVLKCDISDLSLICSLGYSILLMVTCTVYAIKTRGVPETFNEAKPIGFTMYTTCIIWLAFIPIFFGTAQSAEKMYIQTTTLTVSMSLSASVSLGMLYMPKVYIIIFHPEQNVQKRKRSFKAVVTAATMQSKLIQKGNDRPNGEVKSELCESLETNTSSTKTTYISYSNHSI

| Compound | z-score |
| --- | --- |
| CCNC(=S)N1CCC(NC(=O)C2CCCCC2)CC1 | 0.033 |
| CC1CCN(C(=O)CSc2nnc(CN3CCOCC3)n2-c2ccccc2)CC1 | -0.0153 |
| COc1ccc(N(CC(=O)NCc2ccco2)S(C)(=O)=O)cc1Cl | -0.0738 |
| O=C(NCCC1=CCCCC1)c1ccc(Cl)c([N+](=O)[O-])c1 | -0.0902 |
| Cc1cccc(NC(=O)CC2C(=O)NCCN2C(=S)Nc2ccccc2)c1 (stereo unspecified) | -0.0177 |
| CN(c1ccccc1)S(=O)(=O)c1cccc(C(=O)OCC(=O)NCc2ccc3c(c2)OCO3)c1 | -0.536 |
| CCCc1nnc(NC(=O)CCC(=O)N2CCCCC2CC)s1 (stereo unspecified) | 0.821 |
| Cc1ccc(-c2noc(C3CCCN(C(=O)C4CCCCC4)C3)n2)o1 (stereo unspecified) | -0.391 |
| CC(C)(C)c1ccc(NC(=O)COc2ccc(-n3ccnc3)cc2)cc1 | -0.107 |
| CCc1ccccc1NC(=O)CCCSc1nc2ccccc2s1 | -0.128 |
| CC(Oc1ccc(Cl)cc1Cl)C(=O)NC1CCSC1=O (stereo unspecified) | -0.619 |
| COC(=O)c1ccccc1NC(=O)C1CC(=O)N(c2ccc(C)c(C)c2)C1 (stereo unspecified) | -0.903 |
| COc1ccc(-c2nc(-c3cccc(C)c3)nc(Cl)c2C#N)cc1 | -0.35 |
| CCn1c(SCc2nc3scc(-c4ccccc4)c3c(=O)[nH]2)nnc1-c1ccc(Cl)cc1 | -0.251 |
| Cc1ccccc1Nc1nc(N)nc(CSc2nc3ccccc3c(=O)n2C)n1 | 0.919 |
| CC(=O)Nc1cc(S(=O)(=O)Nc2ccccc2C)c(C)cc1C | -0.156 |
| CNCCOc1ccccc1C(C)(C)C | 0.802 |
| CCOC(=O)/C=C/S(=O)(=O)c1ccc(NC(C)=O)cc1 | -0.538 |
| CC1=C(C(=O)Nc2ccccc2)C(c2ccc3c(c2)OCO3)C2=C(CCCC2=O)N1 (stereo unspecified) | -0.226 |
| NC(=S)c1ccc(C(N)=S)o1 | 0.498 |
| Cc1ccccc1NC(=O)Nc1nnc(Cc2ccc([N+](=O)[O-])cc2)s1 | -0.208 |
| CCCCc1ccc(-c2ccc(Br)cc2)nc1 | -0.143 |
| Cn1c(N)c(C(=O)COC(=O)CSc2ccccc2)c(=O)n(C)c1=O | 0.116 |

| Compound | z-score |
| --- | --- |
| Cn1c(N)c(C(=O)CSc2nc(N)cc(=O)[nH]2)c(=O)n(C)c1=O | 0.13 |
| CCn1c(Cc2ccc(OC)cc2)nnc1SCC(=O)Nc1nc2ccccc2s1 | -0.238 |
| CCC(CO)n1c(SCc2cc(=O)oc3cc(C)ccc23)nc2ccccc2c1=O (stereo unspecified) | 0.503 |
| CCc1oc2ccccc2c1C(=O)CCN1CCCCC1 | 0.481 |
| Cc1cc(C)n(CCCNCC(O)c2ccccc2)n1 (stereo unspecified) | 0.196 |
| Cc1ncc(CO)c(/C=N/NC(=O)c2ccc(O)cc2)c1O | -0.221 |
| O=C(c1cnccn1)N1CCN(c2ccccc2)CC1 | -0.108 |
| O=C(c1ccco1)N1CCN(C(c2cccs2)c2sc3ncnn3c2O)CC1 (stereo unspecified) | 0.269 |
| O=C(N/N=C/c1ccc([N+](=O)[O-])s1)c1ccccc1Br | -0.301 |
| Cc1ccccc1CN(C)CC(=O)Nc1ccccc1-c1ccccc1 | 0.244 |
| Cc1ccc(S(=O)(=O)N2CCN(C(=O)Cc3ccc4c(c3)OCCO4)CC2)cc1C | -0.229 |
| CC1Cc2nc(SCC(=O)Nc3ccc4c(c3)OCCO4)n(C)c(=O)c2S1 (stereo unspecified) | -2.29 |
| Cc1ccc(NC2=CC(=O)CC(C)(C)C2)c(N)c1 | -0.165 |
| O=C(OCC#CCSc1nc2ccccc2s1)c1ccco1 | -1.16 |
| NC(=O)C1CCN(c2ccc(C(F)(F)F)cc2[N+](=O)[O-])CC1 | 0.0305 |
| Cc1ccc(CNC(=O)CCc2ccc(S(=O)(=O)NC3CCCCC3)cc2)cc1 | -0.502 |
| N#Cc1c(NC(=O)c2ccc(N3CCOCC3)c([N+](=O)[O-])c2)sc2c1CCCC2 | -0.412 |
| O=C(COC(=O)Cc1ccsc1)NCC1CCCCC1 | 0.126 |
| O=C1C2C3C=CC(C3)C2C(=O)N1CCCO (stereo unspecified) | 0.101 |
| CCOc1ccc(C(=O)NCCn2cc(SCC(=O)Nc3cc(C)on3)c3ccccc32)cc1 | -0.34 |
| Nn1c(SC/C=C/c2ccccc2)nnc1-c1ccccn1 | active: -4.34 |
| Cc1c(NC(=O)C(=O)/C=C(\O)c2ccc(Cl)cc2)c(=O)n(-c2ccccc2)n1C | 2.16 |
| Cc1ccc2c(c1)cc(CN(Cc1ccc3c(c1)OCO3)S(=O)(=O)c1ccccc1)c1nnnn12 | -0.139 |

| Compound | z-score |
| --- | --- |
| Cc1ccc(NC(=S)N(C)Cc2cn(C)c3ccccc23)cc1 | 0.334 |
| CN(C)CCNC(=O)c1cc2ccccc2oc1=O | 0.761 |
| Cc1ccc(-c2nnc(/C=C/c3ccccc3)o2)cc1 | -0.239 |
| Cc1ccc2nc(SCc3ccc([N+](=O)[O-])cc3)nc(C)c2c1 | -0.0907 |
| Oc1ccc(Br)cc1C=Nc1ccc2[nH]ncc2c1 | -0.0698 |
| CSc1ncccc1C(=O)Nc1ccc(S(=O)(=O)Nc2nccs2)cc1 | -0.16 |
| CCSc1nc(C)c(C(C)=O)cc1C#N | -0.273 |
| O=C(CCc1ccccc1)Nc1ccc(NC(=O)c2ccco2)cc1 | 1.63 |
| COc1ccccc1OC(=O)c1cc(Cl)nc2ccccc12 | 0.605 |
| CC(=O)N(CCC1(C(C)C)CCOC(C)(C)C1)Cc1ccco1 (stereo unspecified) | 0.179 |
| COc1ccc(-n2nnnc2SCC(=O)N2CCCC2)cc1OC | 0.896 |
| CC(C)Sc1nc(C(F)(F)F)cc(=O)n1-c1ccccc1 | 0.426 |
| CCc1ccc(C(=O)Nc2cc3c(cc2Cl)OCCCO3)cc1 | -0.587 |
| C=CCNC(=O)c1onc(CSc2ccc(Cl)cc2)c1C(=O)O | -0.4 |
| O=C(NC(c1ccccc1)c1c(O)ccc2ccccc12)c1ccccc1Cl (stereo unspecified) | -0.398 |
| CCCC(=O)Oc1ccc(N(C(=O)CCC)S(=O)(=O)c2cccc([N+](=O)[O-])c2)cc1 | -0.312 |
| O=C(/C=C/c1ccc(Cl)cc1)N1CCN(c2ccccn2)CC1 | -0.287 |
| CCn1c(=O)cc(SCC(=O)NCCCN2CCN(c3ccccc3F)CC2)c2ccccc21 | 0.0677 |
| Cc1cc2n(n1)C(c1ccc3c(c1)OCO3)Nc1c(C)cccc1-2 (stereo unspecified) | -1.05 |
| COc1cccc(Nc2nc(CN3CCOCC3)nc3sc4c(c23)CCCC4)c1 | -0.225 |
| CC1=C(C(=O)OCC(C)C)C(c2cccc(F)c2)N2C(=O)C(C)SC2=N1 (stereo unspecified) | -1.22 |
| CC1CCN(C(=S)c2cn(Cc3cccc(F)c3)c3ccccc23)CC1 | -0.227 |
| CN(C)c1ccc(CNC2C3CC4CC(C3)CC2C4)cc1 (stereo unspecified) | 1.29 |

| Compound | z-score |
| --- | --- |
| Cc1nc(N2CCc3ccccc32)[nH]c(=O)c1CCC(C)C | 1.25 |
| COc1ccc(/C=N\NC(=S)SCN2C(=O)C3CCC(C)(C2=O)C3(C)C)cc1 (stereo unspecified) | active: 9.12 |
| CCOC(=O)c1cccc(NC(=O)CSc2nnc(-c3cccnc3)n2CC)c1 | -0.583 |
| CCOC(=O)c1ccc(NC(=O)c2cc(S(=O)(=O)N3CCOCC3)ccc2O)cc1 | -2.37 |
| Cc1ccc(Cn2cccc2C2=NC(C)CO2)cc1 (stereo unspecified) | -0.0156 |
| O=C(CCCSc1nc(-c2ccco2)cc(C(F)(F)F)n1)NCc1cccs1 | -0.948 |
| CCOc1ccc(/C(O)=C2/C(=O)C(=O)N(CCOCCO)C2c2ccc(F)cc2)cc1 (stereo unspecified) | 0.369 |
| Cc1ccc(-c2csc(NNC(=O)c3ccccc3)n2)cc1 | -0.16 |
| S=C(NCCSCc1ccc(Cl)cc1Cl)Nc1ccccc1 | -0.181 |
| COC(=O)c1ccc(NC(=O)C(=O)N2CCCC2)cc1 | -0.352 |
| COc1ccccc1NC(=O)CSC(N)=O | 0.0872 |
| CC1CCCC(C)N1C(=O)CN1C(=O)C(C)(C)Oc2ccc(C(=O)NC3CCCCC3)cc21 (stereo unspecified) | -0.0308 |
| CCOc1ncccc1C(=O)OCC(=O)Nc1ccc(C)c(S(=O)(=O)N2CCOCC2)c1 | -0.521 |
| CSc1cnn(-c2ccccc2)c(=O)c1SC | -0.142 |
| COc1ccc(C(C(=O)NC2CCCCC2)N(C(=O)Cc2c[nH]c3ccccc23)c2ccccc2)cc1OC (stereo unspecified) | -0.0712 |
| O=S(=O)(c1ccccc1)c1cnc(-c2cccnc2)nc1-c1ccc(Cl)cc1Cl | 0.15 |
| COc1ccc(C2N3CC4(C)CN2CC(C)(C3)C4O)cc1 (stereo unspecified) | 0.858 |
| COc1cc(OC)cc(C(C(=O)NC2CCCCC2)N(C(=O)c2ccno2)c2ccccc2)c1 (stereo unspecified) | 0.314 |
| Cc1noc(C)c1C(=O)Nc1ccc(F)c(F)c1 | -0.0662 |
| CN(C)c1ccc(C(=O)OCC(=O)NCC2CCCO2)cc1 (stereo unspecified) | 0.133 |
| O=C(Nc1nc(-c2ccc(S(=O)(=O)N3CCCCCC3)cc2)cs1)c1cccs1 | 0.452 |
| Cc1cc(-c2ccccc2)nc(N/N=C/c2ccco2)n1 | 0.0633 |
| COc1ccc(OC)c(Nc2nc(-c3sc(N)nc3C)cs2)c1 | -0.265 |

| Compound | z-score |
| --- | --- |
| CCOC(=O)c1sc(-c2ccc(F)cc2)cc1N | 0.0216 |
| CCOc1ccc(N(CC(=O)NCc2cccs2)S(=O)(=O)c2c(C)noc2C)cc1 | -0.465 |
| O=C(CN1C(=O)COc2ccc(Cl)cc21)Nc1ccc2c(c1)OCCO2 | -0.162 |
| Cc1cc(C)nc(SCc2cccc(C(=O)O)c2)n1 | 0.0375 |
| COc1ccccc1-c1cc(C(=O)N/N=C/c2ccc(C)s2)c2ccccc2n1 | -0.0583 |
| Cc1cc(C)cc(NC(=O)CN(C)S(=O)(=O)c2cnc[nH]2)c1 | -0.129 |
| O=C(NC(Cc1ccccc1)c1ccc2c(c1)OCCCO2)c1ccccc1 (stereo unspecified) | -0.929 |
| C=CCn1c(=N)c(C#N)cc2c(=O)n3ccccc3nc21 | -0.167 |
| COC(=O)CN(c1ccc(C(C)C)cc1)S(=O)(=O)c1c(C)[nH]c(=O)[nH]c1=O | -0.0571 |
| CC12CC3CC(C)(C1)CC(C(=O)NC1=NCCS1)(C3)C2 | -0.108 |
| Cc1ccccc1N1C(=O)C(Cl)=C(N2CCN(c3ccccc3)CC2)C1=O | -0.739 |
| O=C(O)CC1C(=O)NCCN1Cc1ccc(F)c(F)c1 (stereo unspecified) | -0.183 |
| Cc1cc(Nc2ccccc2)n(-c2ccc(Br)cc2)n1 | -0.541 |
| c1ccc(-n2ncc(-c3nn[nH]n3)n2)cc1 | 1.62 |
| Cc1cccc(Nc2nc(N3CCCC3)nc(N3CCCC3)n2)c1 | 0.00977 |
| COc1ccc(C(C(=O)NC2CCCC2)N(C(=O)c2snc(-c3ccc(F)cc3)c2N)c2ccccc2)cc1 (stereo unspecified) | -0.157 |
| CCOC(=O)N1CCC(NC(=O)c2oc3c(c2C)-c2[nH]ncc2CC3)CC1 | 0.028 |
| CCn1c(-c2ccc([N+](=O)[O-])cc2)n[nH]c1=S | -0.246 |
| O=C(Cc1cccs1)N1CCCC(c2nc3c(nnn3Cc3cccc(Cl)c3)c(=O)[nH]2)C1 (stereo unspecified) | -0.459 |
